In PMC12040169 (PLOS Biology, 2025):
Some of the results follow.

System: T1, C. trachomatis L2/434/Bu expressing GFP (CTL2-GFP)
T1 construct: L2/434/Bu GFP intracellular growth in HeLa cells
Design: species or system HeLa; C. trachomatis total inclusion area by high-content imaging, normalised to DMSO
Details: total inclusion area; 28.5 h, 10 µM; inhibitor
Method in brief: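 High-content images of fixed, Hoechst-stained infected cultures supply inclusion area and count (growth) plus nuclei number (viability), complementing bulk GFP/resorufin fluorescence. MIC determination is unchanged from the primary assay.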

Q: `O=C1OCc2ccc3c(c21)COCO3` [CBK022696] was tested. Which “% of control remaining” value did it give?
A: Its value is 73.1673.

Q: For `COc1ccc(NC(=O)CSc2cc(-n3cccn3)ncn2)cc1` [CBK287819], which “% of control remaining” value is on record?
A: The value was 81.8312.

Q: `CCCCn1c(SCC(=O)N(C)Cc2cnn(-c3ccccc3)c2)n[nH]c1=O` [CBK296732] was tested. Which “% of control remaining” value did it give?
A: The value was 88.1787.

Q: For `Cc1cc2ccccc2n2c(=O)n(CC(=O)N3CCC(C)CC3)nc12` [CBK283881], which “% of control remaining” value is on record?
A: The value was 112.349.

Q: Which “% of control remaining” value does the source give for `O=S(=O)(N[C@H]1CO[C@H]2[C@@H]1OC[C@@H]2n1cc(-c2ccccn2)nn1)c1cccs1` [CBK289508] here?
A: Its value is 118.3.

Q: How did the “% of control remaining” value turn out when `Nc1nccc(-c2cc(OCC(F)(F)F)ccc2OCC(F)(F)F)n1` [CBK005948] was run?
A: The value was 93.6241.

Q: How did the “% of control remaining” value turn out when `CCC(C)(C)C(=O)Nc1ccc(Br)c2ccccc12` [CBK091342] was run?
A: The value was 52.9256.

Q: For `CCNC(=O)N[C@H]1CC[C@]2(C)CCC([C@H](C)C(=O)N3CCCC3)[C@H](O)[C@H]2[C@@H]1C` (stereo partly shown) [CBK289456], which “% of control remaining” value is on record?
A: The value was 99.6021.

Q: For `CCOC(=O)c1c(NC(=O)c2cccnc2)sc2c1CCCC2` [CBK304574], which “% of control remaining” value is on record?
A: The value was 62.7461.

Q: With `CN(C)CC(=O)Nc1ccc(Br)cc1C(=O)c1ccccc1Cl` [CBK264663F] as the molecule, how does the “% of control remaining” value read?
A: Its value is 109.846.

Q: For `COc1ccc(CN2CCN(C)CC2)cc1OCc1ccccc1` [CBK261886], which “% of control remaining” value is on record?
A: The value was 102.044.

Q: How did the “% of control remaining” value turn out when `O=C(NC(=S)Nc1cccc(-c2nc3cc(Cl)ccc3o2)c1)c1ccccc1Br` [CBK263973] was run?
A: The value was 113.017.

Q: For `Clc1cc(N[C@@H]2CCN(Cc3ccccc3)C2)n2nccc2n1` [CBK037069], which “% of control remaining” value is on record?
A: The value was 105.451.

Q: With `CSCCN1CCC(Oc2nccnc2OCc2cc(C)on2)CC1` [CBK082966T] as the molecule, how does the “% of control remaining” value read?
A: The value was 96.9761.

Q: For `O=C(O)C1(NS(=O)(=O)c2ccc(Cl)cc2)CCCCC1` [CBK028566], which “% of control remaining” value is on record?
A: Its value is 101.691.

Q: `C[N+]1(C)CCN(C(=O)CCC(=O)N2CC[N+](C)(C)CC2)CC1` [CBK278200I] was tested. Which “% of control remaining” value did it give?
A: Its value is 91.583.

Q: For `O=C(O)C1(Oc2ccc3ccccc3c2)CCN(CC2CCOC2)CC1` (stereo not shown) [CBK306767], which “% of control remaining” value is on record?
A: The value was 88.4015.

Q: `c1ccc2c(c1)nc(N1CCOCC1)n2CCN1CCOCC1` [CBK269841] was tested. Which “% of control remaining” value did it give?
A: Its value is 73.8973.

Q: For `CC(=O)NCCn1cc2c(n1)[C@H]1CN(C(=O)CC(C)C)C[C@H]1CC2` [CBK284572], which “% of control remaining” value is on record?
A: The value was 53.4314.

Q: How did the “% of control remaining” value turn out when `CN1C(=O)c2ccccc2C(O)C2(C)CN(Cc3ccccc3)CC12` (stereo not shown) [CBK282849] was run?
A: The value was 89.0124.

Q: With `N#Cc1ccccc1CSc1ncn[nH]1` [CBK027835] as the molecule, how does the “% of control remaining” value read?
A: The value was 119.776.

Q: Which “% of control remaining” value does the source give for `O=C(CCCSc1nc2sc3c(c2c(=O)[nH]1)CCCC3)NCCO` [CBK263336] here?
A: The value was 107.87.

Q: Which “% of control remaining” value does the source give for `Cc1cc(C)c(C)c(S(=O)(=O)NCCCC(=O)O)c1C` [CBK268898] here?
A: The value was 102.683.

Q: With `CCN(Cc1nc(-c2ccccc2)no1)C(=O)c1ccoc1C` [CBK270229] as the molecule, how does the “% of control remaining” value read?
A: Its value is 112.837.

Q: `Cc1nnc(SCCCNC(=O)C2CC(=O)N(Cc3ccccn3)C2)s1` (stereo not shown) [CBK307529] was tested. Which “% of control remaining” value did it give?
A: The value was 65.0478.

Q: For `O=C(N[C@H]1CO[C@H]2[C@@H]1OC[C@@H]2n1cc(CC2CCCCC2)nn1)C1CC1` [CBK289509], which “% of control remaining” value is on record?
A: Its value is 113.985.

Q: `CSc1nn(C)c(=O)c2c3c(sc12)CCC3` [CBK019796] was tested. Which “% of control remaining” value did it give?
A: The value was 67.6889.

Q: `Cc1cc(Cl)c(S(=O)(=O)NCc2cccs2)cc1OCC(N)=O` [CBK266496] was tested. Which “% of control remaining” value did it give?
A: Its value is 124.748.

Q: With `O=C(NC1CCCCC1)C1CCCN(C(=O)NCc2ccccn2)C1` (stereo not shown) [CBK305814] as the molecule, how does the “% of control remaining” value read?
A: Its value is 63.2309.

Q: With `O=C(O)CCn1c(C2CCCCC2)nc2ccccc21` [CBK111480] as the molecule, how does the “% of control remaining” value read?
A: Its value is 89.2136.

Q: With `CCC(C)(C)Nc1cccnc1N(C)C1CCN(C(=O)c2cc3cc(N)ccc3[nH]2)CC1` [CBK016674] as the molecule, how does the “% of control remaining” value read?
A: The value was 85.8862.

Q: For `CN1C(=O)CC2(C1=O)C(=O)N(CCN1C(=O)c3ccccc3C1=O)c1ccc(F)cc12` (stereo not shown) [CBK075451], which “% of control remaining” value is on record?
A: The value was 103.427.

Q: For `CC(C)N1CCC(=NNC(=O)COc2ccc(Cl)cc2Cl)CC1` [CBK262614], which “% of control remaining” value is on record?
A: The value was 109.961.

Q: With `CCNC(=S)NC1CC[C@@]2(C3=CC=CC4C=CC=CC34)CCN(C)[C@H]2C1` (stereo partly shown) [CBK003596C] as the molecule, how does the “% of control remaining” value read?
A: Its value is 60.1425.

Q: `Cc1cc2cc(F)ccc2n1CCCN1CCN(c2ccncc2)CC1` [CBK039119G] was tested. Which “% of control remaining” value did it give?
A: Its value is 37.9352.

Q: `Cc1ccc(Cl)c(OCc2nnc(SCC(=O)O)n2N)c1` [CBK268992] was tested. Which “% of control remaining” value did it give?
A: The value was 47.1989.

Q: For `Cc1ccc(C2N(Cc3ccccc3)CCN2Cc2ccccc2)o1` [CBK260883], which “% of control remaining” value is on record?
A: The value was 93.4442.

Q: Which “% of control remaining” value does the source give for `CCC1CCCCN1C(=O)c1cccs1` (stereo not shown) [CBK074214] here?
A: Its value is 113.5.

Q: How did the “% of control remaining” value turn out when `CC1OCN(c2ccc(C(C)(C)C)cc2)Cn2c1nc1ccccc12` (stereo not shown) [CBK018706] was run?
A: The value was 33.5149.

Q: For `O=C(NC[C@H]1C[C@@H]2CC[N@]1C[C@@H]2CN1CCN(c2ncccn2)CC1)c1ccco1` [CBK289115], which “% of control remaining” value is on record?
A: Its value is 107.825.

Q: For `O=C(NCCn1nc(-c2cccs2)ccc1=O)C1CCCC1` [CBK283840], which “% of control remaining” value is on record?
A: Its value is 102.481.

Q: Which “% of control remaining” value does the source give for `O=C(Nc1ccc(N2CCNCC2)nc1)c1cnccn1` [CBK029436T] here?
A: Its value is 98.3521.

Q: With `CCCc1n[nH]c(=S)n1CC(=O)Nc1cc(NC(=O)C2CC2)ccc1C` [CBK297740] as the molecule, how does the “% of control remaining” value read?
A: Its value is 94.0705.

Q: Which “% of control remaining” value does the source give for `O=C(/C=C/c1ccc2c(c1)OCO2)N1CCN(c2ncccn2)CC1` [CBK144501] here?
A: Its value is 103.786.

Q: With `O=C(c1ccco1)N1CCN(c2cc(-c3ccsc3)ncn2)CC1` [CBK037690] as the molecule, how does the “% of control remaining” value read?
A: The value was 154.387.

Q: With `CS(=O)(=O)N(CC(=O)Nc1ccc(S(=O)(=O)N2CCCCCC2)cc1)c1ccccc1F` [CBK266829] as the molecule, how does the “% of control remaining” value read?
A: The value was 101.816.

Q: How did the “% of control remaining” value turn out when `Cc1ccccc1Cn1c(=O)sc2ccccc21` [CBK025408] was run?
A: Its value is 57.3388.

Q: How did the “% of control remaining” value turn out when `COc1ccc2[nH]c3c(c2c1)CCN1C(c2ccco2)N2CCC31CC2` (stereo not shown) [CBK284432] was run?
A: The value was 95.0117.

Q: Which “% of control remaining” value does the source give for `CC(NC(=O)C1CC(=O)N(c2cccc(F)c2)C1)C1CC2CCC1C2` (stereo not shown) [CBK281664] here?
A: The value was 84.3704.

Q: How did the “% of control remaining” value turn out when `Cn1nccc1CN1CCNC(=O)C1c1ccccc1C(F)(F)F` (stereo not shown) [CBK306422] was run?
A: The value was 74.5523.

Q: With `Cc1nc([N+](=O)[O-])c(SCC(O)CN2CCCCC2)[nH]1` (stereo not shown) [CBK261727] as the molecule, how does the “% of control remaining” value read?
A: Its value is 96.1027.

Q: With `Cc1cc(C)nc(SCCC(=O)O)n1` [CBK260975] as the molecule, how does the “% of control remaining” value read?
A: Its value is 101.557.
